Results as given in the supplement of paper PMC3334620.
Whole data set: some 33,000 sequences, median “E-score (-0.5 to 0.5)” near -0.04, cut for the highest 2% near 0.36. The list shows a part of the results.

Biological target: T1, Hmlalpha2 (UniProt P0CY09)
T1 sequence: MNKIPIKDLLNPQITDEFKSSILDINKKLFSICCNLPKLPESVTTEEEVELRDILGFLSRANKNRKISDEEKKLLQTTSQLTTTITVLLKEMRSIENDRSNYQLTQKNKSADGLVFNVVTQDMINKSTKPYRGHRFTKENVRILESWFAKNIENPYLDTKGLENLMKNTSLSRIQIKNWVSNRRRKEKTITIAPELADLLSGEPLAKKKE
Test: PBM E-score (8-mer binding enrichment) (E-score (-0.5 to 0.5)); higher = stronger / more preferred TF binding; most listed sequences are background and not binding sites
Details: protein concentration: 200 nM; construct: GST-full length
Protocol: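 Universal 'all 10-mer' protein binding microarrays (Agilent AMADID 015681) probed with GST-tagged S. cerevisiae TFs (full-length or DBD) made by in vitro transcription/translation (PURExpress), about 100-200 nM. Bound TF was detected with fluorescent anti-GST. Each ungapped 8-mer (which stands for itself and its reverse complement) is scored by the PBM enrichment score (E-score), a modified Wilcoxon-Mann-Whitney statistic from -0.5 to +0.5, computed with the Universal PBM Analysis Suite. Scale: above 0.35 generally sequence-specific binding.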

Sequence | PBM E-score
CTCCCCCA | -0.315
CCAGGGGC | -0.235
CTCACCTC | -0.0732
AGGCGCTC | -0.213
GATGACAA | 0.207
AAACTGTG | 0.131
GGCCTCAC | -0.204
ATATGCGA | 0.131
ATCTGCTG | -0.0593
TAACTCAA | 0.221
CCTTGCAG | -0.243
GCGAACAC | -0.166
ATAAGAAT | 0.116
ATACGACA | 0.241
ACCAGTAA | 0.144
ACATTACA | 0.449
AGCAACGC | 0.197
AAAGGCCA | -0.188
CTGGAAGC | -0.254
AATGCACC | 0.00311
CATAGAGC | -0.23
AAAGCTAT | 0.101
AATTAACC | 0.104
TGCTTGAA | 0.128
ACCCGGTA | 0.111

Sequence | PBM E-score
GAACGCCA | -0.0322
CCTCTTGC | -0.172
GAGGTTCC | -0.141
CTGGGTTA | 0.184
CAAGTGAC | -0.0431
CTGAGGTC | -0.249
GATCCATA | -0.113
ACTGACTC | -0.204
CACTCCAG | -0.148
ACAGCAGC | 0.0712
CAGCTGAG | -0.143
CGAGTCAG | -0.16
CTATACCA | 0.0995
GGACGTAC | -0.0243
AGTAGTAT | 0.11
AACTTGAT | 0.187
GAAGTAAA | 0.131
CTAGGCGC | -0.158
TCATGGGA | -0.091
AGTGAGAC | -0.237
CGCCAATA | 0.0325
ACTTACCT | -0.0906
CGACGGCG | -0.198
AATGCCTA | -0.0868
AACGACAT | 0.312

Sequence | PBM E-score
AAAAAGTC | -0.0155
GTCCAAAA | 0.0377
AATCGTGC | 0.151
CAACGAGC | -0.0885
AAGGCTGC | -0.194
CTTTCAGA | -0.0843
TGCAGACA | 0.0705
TGAATCCA | -0.139
CTGAACCA | 0.0213
GACCATGA | -0.132
ACCAGACA | 0.0989
CTAGTCGA | -0.0801
AAGACCAA | -0.0417
AAGGGGCG | -0.361
GCGCTTCA | -0.216
GAGACTGC | -0.207
CCCTGCGC | -0.296
ACGTTAAA | 0.362
AAACTATG | 0.097
ACTGATTA | 0.187
TCGTGTCA | 0.395
CGTGCTTC | 0.0983
CGTTAAAG | 0.251
CCACGTAG | -0.0349
ATCACCCC | -0.191

Sequence | PBM E-score
AACTTATC | -0.0978
GCGCGTCC | -0.115
CTAAAAAC | 0.0815
CCTAGCCG | -0.244
AGCCCAGA | -0.185
GAGGTTCA | -0.0376
ACAACAGA | 0.193
ATAGGCAG | -0.0885
CGTACTTC | 0.0387
CGCACCTA | -0.00929
TACCCGAA | -0.0229
ACATATCG | 0.126
CAGCGGCC | -0.287
AAACCGAT | -0.0211
CGTTATAG | 0.175
ATGTGGTG | 0.112
GCGGCTCA | -0.179
GCACTGCC | -0.226
TGAGAAAA | -0.0832
CATTTCTC | -0.0284
AACCCCCA | -0.223
AGAGTGAA | 0.14
ACGACCAC | 0.133
AGAGGCGC | -0.201
ACGCCCCT | 0.0821

Sequence | PBM E-score
GGCTAGAA | -0.222
CTAACAAG | 0.175
ACGTTCCT | 0.245
ACCAAGAG | -0.161
GGAATACA | 0.431
CGGCGCCC | -0.0686
GAGCTCAA | 0.0498
CGGCTCTC | -0.295
AGCGGATA | -0.329
ATCGGGGA | 0.0745
CTTTGGGA | -0.248
AGGATCCT | -0.168
CTGTACAG | 0.0499
CCCCACAA | -0.248
ACATTACG | 0.336
ATGCTTGC | -0.201
GCAACAAA | 0.154
CGAAGCTA | 0.101
CCGACAGA | -0.0555
CGCCTCTA | -0.0968
GAACGCCC | -0.287
GCCTAAGC | -0.107
ACTGGAAG | -0.153
ACGAGCGC | -0.13
AATTTGGC | 0.0265

Sequence | PBM E-score
ATGTGATA | 0.299
AATTACGT | 0.382
ATCCCCCA | -0.389
GCATTACC | 8e-05
CAGCAGTA | -0.0173
CAGCTCTC | -0.149
TAGGACTA | -0.116
AAATCTTG | 0.166
AAGACGGG | -0.233
AGACGGAC | -0.168
GACCGTAA | -0.145
CACAATAG | 0.115
TAGCATAA | 0.0211
GGCCGGAA | -0.354
AACGTCGA | 0.218
CAAACGTG | 0.192
ACATATGG | 0.104
CTACAACC | 0.153
GGCGCAGA | -0.231
ACGGTAGC | 0.0743
CTCGCTTC | -0.274
CCATTGTC | -0.142
AAGTGCGG | -0.0262
AGCCGTAG | -0.0781
ATTGGGGG | -0.294

Sequence | PBM E-score
ACAATAGA | 0.202
ACATGTTC | 0.371
GCCAGTAA | -0.258
ATTCCAAA | 0.116
CGATAGAG | -0.0653
CGCACTCA | -0.158
GGCCGGCA | -0.184
TGACCACA | -0.0512
ACTTCTAG | -0.141
AAACATAG | 0.291
GAGGCCGA | -0.289
CGTCAGGC | -0.0954
CTCCCACC | -0.386
CGTCTAGA | -0.229
ACTTTATG | -0.00077
TAATAGGA | 0.234
GCGTACGA | 0.0253
CCACGACG | -0.097
CGTGCTCA | 0.133
GATGCCAA | -0.0722
AATTGTGC | -0.0366
CGGCCGCC | -0.216
CCTATCGA | 0.0464
ATAAGTAT | 0.0378
AGACTCAC | -0.186

Sequence | PBM E-score
CCGCTCCC | -0.362
CAGGTTAG | -0.131
CTTCGTTA | 0.0517
ATATCTAG | -0.162
AGGGTTTA | 0.235
TCTTTAAA | 0.0801
ATTGAGGG | -0.159
CAGCGCCA | -0.125
GTAGCGAA | -0.0184
CAATTATC | 0.0595
ATTCGCCG | -0.021
CGCGTAAG | 0.369
CGACACCA | -0.144
ACACCAGA | 0.14
CCAAGGGC | -0.285
AAACGTTA | 0.16
CGGAACCG | -0.137
CCTTCCCC | -0.228
CGTAACCA | 0.168
CGCATGTC | 0.274
GATACATA | 0.32
AATGGGAT | -0.192
CACGAGAG | -0.119
GACCTGAA | -0.176
TCAGCTAA | -0.0407

Sequence | PBM E-score
CTAATCTC | -0.119
AGAACAAA | 0.269
CGCGCGAG | -0.108
CAGCTAGC | -0.224
AAAGTGGG | -0.104
AATTATAT | 0.224
AATGGACT | -0.0807
CTGACTGA | -0.294
CGATCTCC | -0.206
TTTAGAAA | 0.196
CGGTTTAC | 0.231
GCTCTATA | -0.068
AGTCCTGA | -0.166
GTTAGTCA | 0.0805
ACTGCACC | -0.0877
CACGCAAG | 0.182
CGGGGACA | -0.183
ATGATGGG | -0.0766
AAACCCAT | 0.169
